Measurements reported in the GPR68 mutational scans of Howard et al. (2025).
The least precise scores are not listed. Two further conditions of the source, in which the scores hardly spread, are not listed. Read del as a deletion of the residues named and ins as an insertion between two positions. For some assays here: How much ogerin was present is not stated here.

B1: GPR68, Q15743 (parent)
chain: MGNITADNSSMSCTIDHTIHQTLAPVVYVTVLVVGFPANCLSLYFGYLQIKARNELGVYLCNLTVADLFYICSLPFWLQYVLQHDNWSHGDLSCQVCGILLYENIYISVGFLCCISVDRYLAVAHPFRFHQFRTLKAAVGVSVVIWAKELLTSIYFLMHEEVIEDENQHRVCFEHYPIQAWQRAINYYRFLVGFLFPICLLLASYQGILRAVRRSHGTQKSRKDQIQRLVLSTVVIFLACFLPYHVLLLVRSVWEASCDFAKGVFNAYHFSLLLTSFNCVADPVLYCFVSETTHRDLARLRGACLAFLTCSRTGRAREAYPLGAPEASGKSGAQGEEPELLTKLHPAFQTPNSPGSGGFPTGRLA

Legend:
[1] = variants of: B1; assay: cAMP reporter score (Enrich2 score, wild type = 0); higher = more signal; HEK293T, FACS bins
[2] = variants of: B1; assay: surface expression score (Enrich2 score, wild type = 0); higher = more signal; HEK293T, FACS bins

MGNITADNSSMSCTIDHTIHQTLAPVVYVTVLVVGFPANCLSLYFGYLQIKARNELGVYLCNLTVADLFYICSLPFWLQYVLQHDNWSHRDLSCQVCGILLYENIYISVGFLCCISVDRYLAVAHPFRFHQFRTLKAAVGVSVVIWAKELLTSIYFLMHEEVIEDENQHRVCFEHYPIQAWQRAINYYRFLVGFLFPICLLLASYQGILRAVRRSHGTQKSRKDQIQRLVLSTVVIFLACFLPYHVLLLVRSVWEASCDFAKGVFNAYHFSLLLTSFNCVADPVLYCFVSETTHRDLARLRGACLAFLTCSRTGRAREAYPLGAPEASGKSGAQGEEPELLTKLHPAFQTPNSPGSGGFPTGRLA [G90R] gave a cAMP reporter score ([1]; pH 5.5) of -1.62, a cAMP reporter score ([1]; pH 6) of -0.908 and a cAMP reporter score ([1]; pH 6, modulator: ogerin) of -1.48. The cAMP reporter score ([1]; pH 6.5, modulator: ogerin) was -0.659 and the surface expression score [2] was -0.668.

In the case of MGNITADNSSMSCTIDHTIHQTLAPVVYVTVLVVGFPANCLSLYFGYLQIKARNELGVYLCNLTVADLFYICSLPFWLQYVLQHDNWSHPDLSCQVCGILLYENIYISVGFLCCISVDRYLAVAHPFRFHQFRTLKAAVGVSVVIWAKELLTSIYFLMHEEVIEDENQHRVCFEHYPIQAWQRAINYYRFLVGFLFPICLLLASYQGILRAVRRSHGTQKSRKDQIQRLVLSTVVIFLACFLPYHVLLLVRSVWEASCDFAKGVFNAYHFSLLLTSFNCVADPVLYCFVSETTHRDLARLRGACLAFLTCSRTGRAREAYPLGAPEASGKSGAQGEEPELLTKLHPAFQTPNSPGSGGFPTGRLA [G90P], the cAMP reporter score ([1]; pH 5.5) is reported as 0.318, the cAMP reporter score ([1]; pH 6) is reported as 0.157 and the cAMP reporter score ([1]; pH 6, modulator: ogerin) is reported as 0.55. It also gave a cAMP reporter score ([1]; pH 6.5, modulator: ogerin) of 0.794 and a surface expression score [2] of -1.39.

For MGNITADNSSMSCTIDHTIHQTLAPVVYVTVLVVGFPANCLSLYFGYLQIKARNELGVYLCNLTVADLFYICSLPFWLQYVLQHDNWSHNDLSCQVCGILLYENIYISVGFLCCISVDRYLAVAHPFRFHQFRTLKAAVGVSVVIWAKELLTSIYFLMHEEVIEDENQHRVCFEHYPIQAWQRAINYYRFLVGFLFPICLLLASYQGILRAVRRSHGTQKSRKDQIQRLVLSTVVIFLACFLPYHVLLLVRSVWEASCDFAKGVFNAYHFSLLLTSFNCVADPVLYCFVSETTHRDLARLRGACLAFLTCSRTGRAREAYPLGAPEASGKSGAQGEEPELLTKLHPAFQTPNSPGSGGFPTGRLA [G90N], the cAMP reporter score ([1]; pH 5.5) was 0.13, the cAMP reporter score ([1]; pH 6) was -0.871 and the cAMP reporter score ([1]; pH 6, modulator: ogerin) was -0.032. It also gave a cAMP reporter score ([1]; pH 6.5, modulator: ogerin) of -0.023 and a surface expression score [2] of 0.209.

MGNITADNSSMSCTIDHTIHQTLAPVVYVTVLVVGFPANCLSLYFGYLQIKARNELGVYLCNLTVADLFYICSLPFWLQYVLQHDNWSHQDLSCQVCGILLYENIYISVGFLCCISVDRYLAVAHPFRFHQFRTLKAAVGVSVVIWAKELLTSIYFLMHEEVIEDENQHRVCFEHYPIQAWQRAINYYRFLVGFLFPICLLLASYQGILRAVRRSHGTQKSRKDQIQRLVLSTVVIFLACFLPYHVLLLVRSVWEASCDFAKGVFNAYHFSLLLTSFNCVADPVLYCFVSETTHRDLARLRGACLAFLTCSRTGRAREAYPLGAPEASGKSGAQGEEPELLTKLHPAFQTPNSPGSGGFPTGRLA [G90Q] gave a cAMP reporter score ([1]; pH 5.5) of -1.83, a cAMP reporter score ([1]; pH 6) of -0.278 and a cAMP reporter score ([1]; pH 6, modulator: ogerin) of -1.1. For the same variant, the cAMP reporter score ([1]; pH 6.5, modulator: ogerin) was -0.697 and the surface expression score [2] was 0.843.
